Assay results from paper PMC6919601, “Identification of Plasmodium dipeptidyl aminopeptidase allosteric inhibitors by high throughput screening” (PLoS ONE, 2019).
The campaign covered roughly 110,000 compounds. About 230 (0.21%) showed an effect of 50% or more. The list shows a part of the results.

biological target: DPAP1 (Plasmodium falciparum, UniProt Q8IIJ9); assay: primary screen, percent inhibition; read by cleavage of a fluorogenic dipeptide substrate; higher = more effect of the substance; design: species or system P. falciparum D10 trophozoite lysates; single well
Sequence (Q8IIJ9 whole entry, looked up): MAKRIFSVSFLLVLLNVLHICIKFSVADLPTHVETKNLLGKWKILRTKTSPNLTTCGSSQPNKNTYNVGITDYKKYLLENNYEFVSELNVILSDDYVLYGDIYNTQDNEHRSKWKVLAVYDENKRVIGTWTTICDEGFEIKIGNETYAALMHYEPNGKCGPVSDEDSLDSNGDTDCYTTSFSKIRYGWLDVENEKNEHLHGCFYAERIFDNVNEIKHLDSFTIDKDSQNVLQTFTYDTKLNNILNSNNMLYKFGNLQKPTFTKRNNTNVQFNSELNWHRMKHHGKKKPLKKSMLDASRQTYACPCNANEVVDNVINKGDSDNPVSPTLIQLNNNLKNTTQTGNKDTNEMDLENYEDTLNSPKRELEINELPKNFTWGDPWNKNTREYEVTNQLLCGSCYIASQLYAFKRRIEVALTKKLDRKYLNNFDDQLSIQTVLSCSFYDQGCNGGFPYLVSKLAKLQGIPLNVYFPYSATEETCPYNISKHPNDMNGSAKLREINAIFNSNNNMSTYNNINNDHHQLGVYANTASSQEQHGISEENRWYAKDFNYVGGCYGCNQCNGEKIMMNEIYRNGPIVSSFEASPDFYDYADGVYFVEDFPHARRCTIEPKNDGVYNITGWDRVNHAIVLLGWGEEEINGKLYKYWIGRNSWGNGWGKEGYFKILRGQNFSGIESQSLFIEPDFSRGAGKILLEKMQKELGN
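Note: 30 min substrate incubation versus DMSO and 10 µM JCP410 controls.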

SMILES	% Inhibition @ 10 uM [%]
Cc1ccc(CSCCNC(=O)CN2C(=O)c3cccc4cccc2c34)cc1	3.05
COCc1cc(C)nc2oc(C(=O)c3ccccc3)c(N)c12	-0.305
NC1=NC(c2c[nH]nc2-c2cccc(F)c2)n2c(nc3ccccc32)N1 (centres unmarked)	3.66
CCOC(=O)N1CCC(NCc2c(C(=O)O)c(C)n(Cc3ccccc3F)c2C)CC1	-9.31
CC(=O)c1ccc(NC(=O)COc2ccc(Cl)cc2Cl)cc1	0.968
Cc1cccc(NC(=O)c2sc3nc(C)cc(C(F)(F)F)c3c2N)n1	-6.62
CCOC(=O)N1CCN(CC2CC=CCC2)CC1 (centres unmarked)	-3.57
O=S(=O)(Nc1cccc2c1CCCC2)c1ccc(Cl)cc1	-0.636
NS(=O)(=O)c1ccc(NC(=O)c2cccc(Br)c2)cc1	-1.98
CCn1c(CN2CC(C)CC(C)C2)nc2c1c(=O)n(C)c(=O)n2C (centres unmarked)	6.08
Cc1nn(C(=O)CN2C(=O)c3ccccc3C2=O)c(C)c1Br	0.146
CN(C)CCOc1ccccc1C1NCCc2c1[nH]c1ccccc21 (centres unmarked)	-1.43
COc1ccc(C(=O)Nc2ccccc2Br)c(OC)c1	3.1
Cc1ccc(S(=O)(=O)/N=C(/NCc2ccc(Cl)cc2)Nc2nc(C)cc(C)n2)cc1	3.87
CC(CNC(=O)c1nnc(-c2ccc3c(c2)OCO3)o1)c1ccccc1 (centres unmarked)	3.98
CCC1(C)CC(CCNCc2ccccc2O)(c2ccccc2OC)CCO1 (centres unmarked)	3.16
Cc1cc(/C=C2\SC(Nc3ccc(F)cc3)=NC2=O)c(C)n1-c1ccc(S(N)(=O)=O)cc1	12.7
CC(C)(C)OC(=O)/N=C(\N)n1cccn1	-4.11
CC(C)N(C(=O)c1cccs1)C(C)C	1.41
Cc1ccc2c(c1)-c1c(cnn1CC(=O)N1CCCC1)CO2	-11.2
COc1ccc(C2CC(c3ccc(Cl)cc3Cl)Nc3nc(N)nn32)cc1 (centres unmarked)	-1.86
Cc1ccc(NC(=O)C(C)Oc2ccccc2)cc1O (centres unmarked)	-2.65

SMILES	% Inhibition @ 10 uM [%]
N#CC1=C(N)OC2=C(C(=O)CCC2)C1c1cc(Cl)ccc1[N+](=O)[O-] (centres unmarked)	4.38
COc1ccc(S(=O)(=O)N(C)CC(=O)NCc2ccncc2)cc1OC	2.49
CCCN1C(=O)/C(=C\c2cccnc2)S/C1=N/c1ccccc1	-5.49
COc1cc2nc(Cl)nc(N)c2cc1OC	-0.178
CCCCNC(=O)Cn1nc(C)c2sc3ccccc3c2c1=O	-0.542
Cc1ccc(-n2nc3c(N4CCCC(C(=O)NCc5cccnc5)C4)nnc(C)c3c2C)cc1 (centres unmarked)	-3.8
CCOC(=O)C(C#N)c1ccccn1 (centres unmarked)	-5.11
COc1ccc(S(=O)(=O)N(CC(=O)NCc2ccccc2)c2ccccc2)cc1	2.02
Cc1ccc(C(=O)NCc2ccc(F)cc2)s1	2.09
O=C(Nc1ccc2[nH]c(O)nc2c1)c1cccnc1	5
COC(=O)c1ccc(C2C3=C(O)CCCC3=Nc3ncnn32)cc1 (centres unmarked)	-5.19
CCOC(=O)c1c(NC(=O)C2(C)Cc3ccccc3C(=O)O2)sc2c1CCC(C)C2 (centres unmarked)	-2.45
COCCCNC(=O)/C(C#N)=C/c1c(Oc2ccccc2)nc2ccccn2c1=O	1.19
Nc1ccc(S(=O)(=O)N2CCC(C(=O)NC3CCCCC3)CC2)cn1	3.77
Cc1cc(-c2ccc(C)o2)c(C#N)c(SCC(N)=O)n1	-1.97
CCC(C)NC(=O)CCCn1nc(C)c2c(C)n(-c3ccc(C)cc3)nc2c1=O (centres unmarked)	0.756
Cc1cc(C)n2nc(SCc3cccc(Cl)c3)nc2n1	2.9
CCCO/C(O)=C1\C(C)=NC2=C(C(=O)CC(C)(C)C2)C1c1cccc(F)c1 (centres unmarked)	-4.75
O=C(O)c1cccnc1SCc1cccc(Br)c1	1.42
O=C(O)CC12CC3CC(C1)CC(n1ncc(NCC4CCCO4)c(Cl)c1=O)(C3)C2 (centres unmarked)	3.32
COc1ccc(NC(=O)c2ccc(OC(F)F)c(OC)c2)cc1Cl	0.13
OCCN1CCN(CCc2c3c(cc4c2CCC4)CCC3)CC1	1.19

SMILES	% Inhibition @ 10 uM [%]
CC(C)CCNC(=O)C1CCC(C/N=c2/c(N3CCCC3)c(O)c2=O)CC1 (centres unmarked)	-0.447
CC(C)Cc1cc(C(=O)NCc2cccnc2)no1	1.74
CCCn1c2ccccc2c2cnn(CC(=O)Nc3nccs3)c(=O)c21	0.244
CC1(C)CC(=O)C(/C=N/CCN2CCN(C(=O)NC34CC5CC(CC(C5)C3)C4)CC2)=C(O)C1	4.55
CC1(C)CC(=O)C2=C(C1)N=C1c3ccccc3C(=O)C1C2c1ccc(O)c(O)c1 (centres unmarked)	0.685
O=S(=O)(c1ccc(-c2csc(Nc3cc(Cl)cc(Cl)c3)n2)cc1)N1CCOCC1	3.05
CCc1c(C#N)c(SCC(=O)OC)nc2c1CCC2	4.16
Cc1ccc(/C=C/C(O)=C2\C(=O)Oc3ccccc3C2=O)c(C)c1	0.238
O=C(Cc1ccccc1)NCCCN1CCOCC1	-4.21
Cc1cc(C)c(CSc2ncnc3[nH]cnc23)c(C)c1	5.03
CCOc1ccc(C(=O)Nc2cccc(Br)c2)cc1	4
Cc1ccccc1OCCCCCN1CCCCC1	-1.25
CCOC(=O)c1c(C)[nH]c(C)c1S(=O)(=O)NCC(=O)N(C)Cc1ccccc1	2.24
COc1ccc(-c2noc(CCCOc3ccc(Cl)cc3Cl)n2)cc1	3.66
COC(=O)c1n[nH]c(N)n1	-1.6
N#CCc1ccc(NC(=O)CN(c2ccc(Cl)cc2Cl)S(=O)(=O)c2ccccc2)cc1	-2.65
Brc1ccc(-c2cc(-c3ccccc3)nc(NCc3ccccc3)n2)cc1	-2.6
NC(=O)C1CCN(C2=NC(=O)/C(=C/c3cn(-c4ccccc4)nc3-c3cc4ccccc4o3)S2)CC1	-1.4
CC(C)CS(=O)(=O)C1=NSC2=NC(=O)/C(=C\c3ccco3)C(=N)N21	-3.39
N#CCNC(=O)C(CC1CCCC1)NC(=O)OCc1ccccc1 (centres unmarked)	-6.68
CCOc1ccc(-c2cc(=O)c3ccccc3o2)cc1	-5.26
